# Data as given in PubChem BioAssay AID1460 (National Center for Advancing Translational Sciences (NCATS), 2008).
# The campaign covered roughly 270,000 compounds. About 5,800 (2.1%) were called active. Inconclusive results, whose numbers are uncertain, are shown with a selection of clear calls. The call rests on the fitted dose curve; in most records, active means well fitted inhibition curve with a large enough effect; inconclusive means small, poorly fitted or top-dose-only effect; inactive means flat fitted curve, though single readings scatter. Potencies beside an inconclusive call are fits to weak or partial responses and may not hold up.
# Target: Microtubule-associated protein tau (Homo sapiens) (UniProt P10636)
# Test: qHTS for Inhibitors of Tau Fibril Formation, Thioflavin T Binding; further: nearly all actives have a fitted effect of over 55% in size
# Details: recombinant tau K18 P301L (four-repeat tau fragment), heparin-induced fibrillization, ThT fluorescence; series mostly up to 57.4 µM
# In short: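 Heparin-induced (20 uM) aggregation of recombinant human K18 P301L tau, 15 uM unlabeled with 0.24 uM labeled, pH 7 acetate buffer, 6 hr at 37 C with compound. Fibrils quantified by 30 uM ThT fluorescence after 1 hr ambient incubation.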
# Potency means the concentration at half of the fitted maximal effect; tags describe the fitted curve by direction and shape.
# UniProt P10636, sequence (P10636 whole entry, looked up): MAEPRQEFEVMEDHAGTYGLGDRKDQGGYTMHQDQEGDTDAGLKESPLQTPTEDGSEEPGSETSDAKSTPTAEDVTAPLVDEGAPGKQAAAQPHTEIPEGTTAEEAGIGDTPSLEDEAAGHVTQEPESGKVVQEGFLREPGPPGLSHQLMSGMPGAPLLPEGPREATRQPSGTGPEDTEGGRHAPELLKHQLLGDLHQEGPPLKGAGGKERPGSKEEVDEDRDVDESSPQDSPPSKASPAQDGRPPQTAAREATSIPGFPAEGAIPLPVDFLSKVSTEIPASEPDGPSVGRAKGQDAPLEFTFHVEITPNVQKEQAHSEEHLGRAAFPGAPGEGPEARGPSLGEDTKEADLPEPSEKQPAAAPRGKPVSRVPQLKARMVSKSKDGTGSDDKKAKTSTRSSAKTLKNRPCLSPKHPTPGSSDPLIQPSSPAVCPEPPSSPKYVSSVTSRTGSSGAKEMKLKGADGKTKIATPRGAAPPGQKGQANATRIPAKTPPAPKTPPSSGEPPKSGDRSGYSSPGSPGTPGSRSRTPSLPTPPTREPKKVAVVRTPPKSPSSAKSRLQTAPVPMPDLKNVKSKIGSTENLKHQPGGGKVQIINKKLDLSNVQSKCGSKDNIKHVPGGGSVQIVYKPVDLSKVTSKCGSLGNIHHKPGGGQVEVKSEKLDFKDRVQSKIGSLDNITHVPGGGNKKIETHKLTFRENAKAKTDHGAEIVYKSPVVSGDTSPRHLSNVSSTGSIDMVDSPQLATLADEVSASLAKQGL
row,SMILES,Potency
1,O=C(O)c1ccccc1NN=C1CCCCC1,"inconclusive: 22.4 µM [inhibitor, partial curve]"
2,Oc1ccc(/C=N/Nc2ccnc3cc(Cl)ccc23)c(O)c1,"inconclusive: 1.12 µM [inhibitor, full curve]"
3,C/C(=N\Nc1ccc(Cl)cc1)c1c(O)cc(C)oc1=O,"inconclusive: 17.8 µM [inhibitor, single point]"
4,COc1ccc(-c2cc3ccccc3n2CC(O)CNCCO)cc1 (stereo not drawn),"inconclusive: 39.8 µM [inhibitor, partial curve, poor fit]"
5,CC1CCN(C(=O)CSc2nc(-c3ccc(C(C)C)cc3)no2)CC1,"inconclusive: 12.6 µM [inhibitor, partial curve]"
6,COc1cc(/C=C(\C#N)C(=O)N2CCc3ccccc32)ccc1O,"inconclusive: 11.2 µM [inhibitor, partial curve]"
7,CN(CCO)c1nc(N)c2c(N)nc3c(c2c1C#N)CC(=O)N3C1CCCC1,active: 28.2 µM
8,CCCCCCCCCCCC1=C(O)C(=O)C=C(O)C1=O,active: 10 µM
9,CC(C)=C1C2CCC1C1C(=O)N(c3ccc4c(c3)OCO4)C(=O)C21 (stereo not drawn),inactive
10,C1CCC[C@H]2CCCN3CC[C@H](CCCCCC[C@@H]4CCCN5CC[C@H](CC1)OC45)OC23,inactive
11,CCC(=O)N1CCc2cc(CNC(=O)Nc3ccccc3Cl)ccc21,"inconclusive: 3.55 µM [inhibitor, partial curve]"
12,CN(C)CCCn1c(SCC(=O)N2c3ccccc3Sc3ccccc32)nc2ccccc2c1=O,"inconclusive: 22.4 µM [inhibitor, partial curve]"
13,Cc1ccc(C)c(NC(=O)CCc2nc(-c3ccc(C(C)(C)C)cc3)no2)c1,"inconclusive: 10 µM [inhibitor, partial curve]"
14,CCOc1ccc(Nc2nc(Cc3nnc(SCC(N)=O)o3)cs2)cc1,"inconclusive: 11.2 µM [inhibitor, partial curve]"
15,CCC(Sc1nc2c(sc3ccccc32)c(=O)n1CCCC(=O)NC1CCCC1)C(=O)Nc1cccc(OC)c1 (stereo not drawn),inactive
16,CCCCNc1nc(C)nc2c1nc(-c1ccccc1)n2CCCN(CC)CC,inactive
17,Cc1sc2c(c1C)c(=O)n(-c1ccccc1)c(=O)n2CC(=O)c1ccc(Cl)cc1,"inconclusive: 7.08 µM [inhibitor, single point]"
18,COc1cccc(CNC(=O)CCc2nnc3n(CC(C)C)c(=O)c4ccccc4n23)c1,inactive
19,CC1=NC(=O)C(N=Nc2ccccc2)N1c1ccccc1 (stereo not drawn),"inconclusive: 4.47 µM [inhibitor, full curve]"
20,Cc1cccc(Nc2nc(-c3ccccc3)c3cc(C)ccc3n2)c1,"inconclusive: 31.6 µM [inhibitor, single point]"
21,Cc1c(Nc2nc(-c3ccc(Cl)cc3)cs2)c(=O)n(-c2ccccc2)n1C,"inconclusive: 39.8 µM [inhibitor, single point]"
22,COc1cccc2c(SCC(=O)N/N=C/c3ccc(O)c(O)c3)cc(C)nc12,"inconclusive: 17.8 µM [inhibitor, partial curve]"
23,COc1cc2c(cc1OC)C1(C)N(CC2)C(C(C)=O)=NN1c1ccc(Cl)cc1 (stereo not drawn),active: 10 µM

row,SMILES,Potency
1,CC(=O)N=c1c(C#N)cc2c(=O)n3cccc(C)c3nc2n1Cc1ccco1,"inconclusive: 39.8 µM [inhibitor, single point]"
2,O=C(CSc1nc(-c2ccccc2)[nH]c1-c1ccccc1)Nc1ccc2c(c1)OCO2,"inconclusive: 8.91 µM [inhibitor, full curve]"
3,Cc1c(C(=O)Oc2ccc(-c3cnc4ccccc4n3)cc2)cccc1[N+](=O)[O-],"inconclusive: 1 µM [inhibitor, full curve]"
4,O=C(NNc1nc2ccccc2s1)Nc1ccc(F)cc1,"inconclusive: 3.55 µM [inhibitor, partial curve]"
5,CCc1ccc(NC(=O)Cn2nc(C(F)(F)F)c3c2CCC3)cc1,inactive
6,Cc1ccc(/C=[N+](\[O-])c2ccc(N(C)C)cc2)c2nsnc12,active: 6.31 µM
7,O=C(NC1CCCCCC1)c1ccc(S(=O)(=O)NCc2ccco2)cc1,inactive
8,O=C(Nc1ccc(N2CCCCC2)cc1)c1cccnc1,"inconclusive: 35.5 µM [inhibitor, single point]"
9,Cc1ccc(-c2nc3ccccc3o2)cc1NC(=O)c1cccc2c(Cl)cccc12,inactive
10,COc1cc(/C=N/c2oc(-c3ccccc3)cc2C#N)ccc1O,active: 15.8 µM
11,Cc1nc2sccn2c(=O)c1S(=O)(=O)Nc1ccc(N2CCN(S(C)(=O)=O)CC2)cc1,"inconclusive: 22.4 µM [inhibitor, partial curve, poor fit]"
12,COc1ccccc1N1CCN(C(=O)CSc2nc3ccccc3nc2Cc2ccc(F)cc2)CC1,"inconclusive: 6.31 µM [inhibitor, partial curve]"
13,Cc1ccc(NC(=O)Cn2cnc3c(oc4nc5c(cc43)COC(C)(C)C5)c2=O)cc1,inactive
14,Cc1cc(=O)oc2cc(OCCCN3C(=O)c4ccccc4C3=O)ccc12,"inconclusive: 0.398 µM [inhibitor, full curve, poor fit]"
15,Fc1ccc(Nc2nc3nonc3nc2Nc2cccc(C(F)(F)F)c2)cc1,"inconclusive: 14.1 µM [inhibitor, partial curve]"
16,O=c1c2oc3nc4c(cc3c2ncn1CCCc1ccccc1)CCCC4,"inconclusive: 1.58 µM [inhibitor, full curve, poor fit]"
17,COc1ccc(CNc2ncnc3c2[nH]c2ccccc23)cc1,"inconclusive: 15.8 µM [inhibitor, single point]"
18,CCOC(=O)C(CC)Sc1ncnc2sc3c(c12)CCCC3 (stereo not drawn),inactive
19,CC(=O)OCCn1c(Br)nc2c1c(=O)[nH]c(=O)n2C,"inconclusive: 6.31 µM [inhibitor, single point]"
20,COc1cc2c(cc1NC(=S)NC(=O)/C=C/c1ccc(OC)c(OC)c1)oc1ccccc12,"inconclusive: 15.8 µM [inhibitor, partial curve]"
21,S=C1NCN(C2CCCCC2)CN1Cc1ccccc1,inactive
22,O=C(NC1(C(F)(F)F)NC(=O)N(CCc2ccccc2)C1=O)c1ccccc1Cl (stereo not drawn),inactive
23,NS(=O)(=O)c1ccc(N/N=C/c2ccccn2)c([N+](=O)[O-])c1,"inconclusive: 2.82 µM [inhibitor, full curve]"

row,SMILES,Potency
1,N#CCc1ccc(C(=O)c2ccccc2F)s1,"inconclusive: 12.6 µM [inhibitor, partial curve]"
2,c1ccc2c(c1)NC1(CCCCCC1)n1c-2nc2ccccc21,"inconclusive: 15.8 µM [inhibitor, partial curve]"
3,CCn1c(=O)c2c(cnn2C)c2ccccc21,inactive
4,Cc1c(C(=O)N/N=C/C(C)C)[nH]c2ccc([N+](=O)[O-])cc12,"inconclusive: 31.6 µM [inhibitor, single point]"
5,Clc1ccc(-c2csc3ncnc(Cl)c23)cc1,"inconclusive: 20 µM [inhibitor, single point]"
6,COc1cccc(/C=C2/CN(C)CC3=C2OC(N)=C(C#N)C3c2cccc(OC)c2)c1 (stereo not drawn),"inconclusive: 14.1 µM [inhibitor, partial curve]"
7,COc1ccc2ccccc2c1-c1c(OC)ccc2ccccc12,"inconclusive: 0.112 µM [inhibitor, partial curve, poor fit]"
8,Cc1cc2cc3c(=O)[nH]c(=O)[nH]c3nc2cc1C,"inconclusive: 6.31 µM [inhibitor, partial curve]"
9,CCCCN(C)C(=O)C1CCN(Cc2ccc(OCc3ccccc3)cc2)CC1,inactive
10,COc1cc(/C=N/NC(=S)NC2CC3CC2C2C=CCC32)ccc1O (stereo not drawn),"inconclusive: 11.2 µM [inhibitor, partial curve]"
11,O=c1[nH]c(=O)n(Cc2ccccc2)c2nc(-c3ccc(Oc4ccc(F)cc4)c([N+](=O)[O-])c3)n(CCO)c12,"inconclusive: 25.1 µM [inhibitor, partial curve]"
12,Cc1ccc(OCCSc2nc3ccc(NC(=O)c4ccc5c(c4)OCO5)cc3s2)cc1,inactive
13,CCCCCCn1c(N2CCC(C)CC2)nc2c1c(=O)[nH]c(=O)n2C,"inconclusive: 22.4 µM [inhibitor, single point]"
14,Cc1ccc(C(=O)NCC(=O)OCC(=O)c2ccc3c(c2)NC(=O)CO3)cc1C,"inconclusive: 20 µM [inhibitor, partial curve]"
15,COc1ccc(-c2nc(-c3ccncc3)no2)cc1OC,"inconclusive: 2 µM [inhibitor, full curve]"
16,CNC(=S)Nc1ccc(N2CCN(c3ccc(C(F)(F)F)cn3)CC2)nc1,"inconclusive: 1.41 µM [inhibitor, full curve]"
17,O=C(c1cccc(COc2ccc(Cl)cc2Cl)c1)N1CCN(c2ccccn2)CC1,"inconclusive: 14.1 µM [inhibitor, partial curve]"
18,c1csc(-c2nn3c(C4COc5ccccc5O4)nnc3s2)c1 (stereo not drawn),"inconclusive: 28.2 µM [inhibitor, partial curve]"
19,Cc1c(-c2nsc(NC(=O)c3cccs3)n2)nnn1-c1ccc(Cl)cc1,"inconclusive: 0.631 µM [inhibitor, full curve, poor fit]"
20,Cc1nn2c(=O)cc(COC(=O)c3cccc(NC(=O)COc4ccc(C)c(C)c4)c3)nc2s1,"inconclusive: 0.447 µM [inhibitor, full curve]"
21,Cc1[nH]n(-c2ccccc2)c(=O)c1C(C[N+](=O)[O-])c1ccc(Br)cc1 (stereo not drawn),"inconclusive: 15.8 µM [inhibitor, partial curve]"
22,COc1ccc(N2CCN(C(=O)c3ccc4nc(N5CCCCC5)sc4c3)CC2)cc1,inactive
